Here are results for 110 sequences from the supplement of paper PMC4166925.

± gives the standard deviation of the averaged measurements. The full ranking holds about 33,000 sequences; the median of “E-score (dimensionless, -0.5 to 0.5)” is about -0.046, and the highest 2% start at about 0.36. The list shows a part of the results.

The subject of this assay is T1, SpTbr T-box DNA-binding domain (GST fusion).
T1 sequence: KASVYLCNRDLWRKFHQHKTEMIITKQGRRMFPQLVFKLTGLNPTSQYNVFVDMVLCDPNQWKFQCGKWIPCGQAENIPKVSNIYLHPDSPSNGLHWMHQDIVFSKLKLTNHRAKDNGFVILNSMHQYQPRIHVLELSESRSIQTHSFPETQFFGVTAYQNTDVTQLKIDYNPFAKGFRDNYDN
In words: PBM E-score of 8-mer (E-score (dimensionless, -0.5 to 0.5)); Tbr is Tbrain of the sea star Patiria miniata (Pm) or the sea urchin Strongylocentrotus purpuratus (Sp); higher = stronger binding preference; most listed sequences are background and not binding sites. The note with it: the construct has about 5 more residues each side. The essentials: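 Each ungapped 8-mer received an enrichment E-score from the Universal PBM Analysis Suite, averaged over duplicate arrays. The proteins were Tbr T-box DNA-binding domains, covering the whole T-box plus about five flanking residues, fused to GST and expressed in BL21 E. coli at 20 °C before glutathione affinity purification. Universal Agilent oligonucleotide arrays were made double-stranded by primer extension and incubated with 200 nM protein in PBS (pH 7.5). The arrays were then scanned and quantified, and every 8-mer was scored from probe intensities.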
On to CAAAAGGA, for which the “PBM E-score of 8-mer” value is -0.0102 ± 0.051.

For CGCACATA, the “PBM E-score of 8-mer” value worked out at 0.357 ± 0.019.

On to AGAGAGCT, for which the “PBM E-score of 8-mer” value is -0.0758 ± 0.017.

Turning to CCAGGCCG, the “PBM E-score of 8-mer” value was -0.0516 ± 0.008.

With AGTTGGGG, the “PBM E-score of 8-mer” value was -0.246 ± 0.013.

As for ATTCAAGA, the “PBM E-score of 8-mer” value is -0.184 ± 0.052.

As for GACGAACA, the “PBM E-score of 8-mer” value was 0.0905 ± 0.086.

As to GAAAACCA, the “PBM E-score of 8-mer” value was -0.0648 ± 0.057.

For the sequence ATCGCATA, the “PBM E-score of 8-mer” value was -0.023 ± 0.02.

Regarding ATGGGATA, the “PBM E-score of 8-mer” value was -0.19 ± 0.035.

Take TGACTCAA: the “PBM E-score of 8-mer” value is -0.0762 ± 0.042.

For ATCCAAAT, the “PBM E-score of 8-mer” value was 0.0769 ± 0.013.

GCGGGCCC: the “PBM E-score of 8-mer” value was -0.106 ± 0.053.

As for CCCTCTTC, the “PBM E-score of 8-mer” value is 0.00724 ± 0.0096.

Take ATTCCCAA: the “PBM E-score of 8-mer” value is -0.227 ± 0.012.

As for ACTGCTCA, the “PBM E-score of 8-mer” value was -0.0696 ± 0.041.

For GGTCCTTA, the “PBM E-score of 8-mer” value is -0.239 ± 0.013.

As to AGATTCCG, the “PBM E-score of 8-mer” value was -0.0246 ± 0.022.

Regarding ACATTAAC, the “PBM E-score of 8-mer” value turned out to be 0.102 ± 0.018.

AGTTCCGC: the “PBM E-score of 8-mer” value was -0.036 ± 0.029.

As to ACGAGGAT, the “PBM E-score of 8-mer” value is -0.133 ± 0.0081.

Consider CTCCTTAC, for which the “PBM E-score of 8-mer” value is -0.048 ± 0.025.

Take AGCGTCCT: the “PBM E-score of 8-mer” value was -0.149 ± 0.074.

For the sequence GTTTTTCA, the “PBM E-score of 8-mer” value stood at 0.243 ± 0.017.

For the sequence ATGTCGTG, the “PBM E-score of 8-mer” value came out at 0.126 ± 0.03.

Regarding AGTTATAA, the “PBM E-score of 8-mer” value is -0.0736 ± 0.083.

Take CTAATTCA: the “PBM E-score of 8-mer” value turned out to be 0.0741 ± 0.0055.

As for CGCATGTA, the “PBM E-score of 8-mer” value was -0.128 ± 0.06.

CGTACAAG: the “PBM E-score of 8-mer” value is -0.163 ± 0.058.

With AAGCTCGA, the “PBM E-score of 8-mer” value is -0.0878 ± 0.051.

For the sequence ACTGTTAC, the “PBM E-score of 8-mer” value stood at 0.168 ± 0.0045.

For the sequence CAGTGAAA, the “PBM E-score of 8-mer” value turned out to be 0.045 ± 0.043.

Turning to ATGTCTGA, the “PBM E-score of 8-mer” value is -0.166 ± 0.062.

Take CATATTAA: the “PBM E-score of 8-mer” value is -0.168 ± 0.067.

On to ACAGCCGG, for which the “PBM E-score of 8-mer” value was -0.111 ± 0.049.

Turning to ACCAAGCA, the “PBM E-score of 8-mer” value was -0.22 ± 0.018.

For AGTTATGC, the “PBM E-score of 8-mer” value was -0.0697 ± 0.062.

Consider ACCGCCTA, for which the “PBM E-score of 8-mer” value was -0.0533 ± 0.038.

As to ACAGCACC, the “PBM E-score of 8-mer” value came to 0.148 ± 0.0087.

CCATTTTC: the “PBM E-score of 8-mer” value is -0.121 ± 0.018.

Turning to GGTTTGGA, the “PBM E-score of 8-mer” value is -0.166 ± 0.017.

GTGAGGGA: the “PBM E-score of 8-mer” value amounted to 0.203 ± 0.055.

TAAGCACA: the “PBM E-score of 8-mer” value was -0.0209 ± 0.012.

With AATTCTGA, the “PBM E-score of 8-mer” value was -0.152 ± 0.013.

Regarding GTCCTCAA, the “PBM E-score of 8-mer” value was -0.212 ± 0.03.

CGGGTCCC: the “PBM E-score of 8-mer” value is 0.0456 ± 0.028.

As to CAACGTCG, the “PBM E-score of 8-mer” value was -0.0212 ± 0.069.

On to GACGCGGA, for which the “PBM E-score of 8-mer” value was -0.092 ± 0.043.

Regarding ATGTGCTC, the “PBM E-score of 8-mer” value is -0.253 ± 0.025.

ATCCCATG: the “PBM E-score of 8-mer” value was -0.172 ± 0.038.

Take ATACACTC: the “PBM E-score of 8-mer” value was -0.0398 ± 0.01.

Turning to CTCAAGGC, the “PBM E-score of 8-mer” value is -0.137 ± 0.013.

Regarding ATCCAGCA, the “PBM E-score of 8-mer” value is -0.148 ± 0.032.

CCGCATAC: the “PBM E-score of 8-mer” value is -0.233 ± 0.0039.

On to GGTCAGCA, for which the “PBM E-score of 8-mer” value is -0.152 ± 0.089.

With GCGTATAC, the “PBM E-score of 8-mer” value amounted to 0.0364 ± 0.049.

Take AGGAGAAC: the “PBM E-score of 8-mer” value is -0.0962 ± 0.037.

With CGTTGTAC, the “PBM E-score of 8-mer” value is -0.1168 ± 0.00054.

For ATGGAGTA, the “PBM E-score of 8-mer” value is -0.255 ± 0.048.

With ACACAAAG, the “PBM E-score of 8-mer” value worked out at 0.16 ± 0.035.

On to CAAGTATG, for which the “PBM E-score of 8-mer” value came out at 0.147 ± 0.0066.

Turning to TCGAGCGA, the “PBM E-score of 8-mer” value came out at 0.0225 ± 0.056.

As for CAAATCAA, the “PBM E-score of 8-mer” value was 0.0155 ± 0.081.

As to CCGCACAC, the “PBM E-score of 8-mer” value is 0.248 ± 0.033.

AGATCGGA: the “PBM E-score of 8-mer” value was -0.0303 ± 0.042.

With CCTGATTA, the “PBM E-score of 8-mer” value is -0.0395 ± 0.011.

Turning to AATTGTCC, the “PBM E-score of 8-mer” value was -0.185 ± 0.1.

As for ACAGTACA, the “PBM E-score of 8-mer” value is 0.0218 ± 0.031.

As for ATGTGGCG, the “PBM E-score of 8-mer” value came out at 0.283 ± 0.072.

For GCCCTCGC, the “PBM E-score of 8-mer” value is 0.198 ± 0.083.

Consider GTGTATAA, for which the “PBM E-score of 8-mer” value was -0.0246 ± 0.013.

For the sequence CCCGGGCC, the “PBM E-score of 8-mer” value was -0.283 ± 0.013.

For CCGACTGA, the “PBM E-score of 8-mer” value was -0.112 ± 0.0051.

Consider CACACTCA, for which the “PBM E-score of 8-mer” value is 0.407 ± 0.0072.

Consider CCGACGCC, for which the “PBM E-score of 8-mer” value worked out at 0.24 ± 0.058.

Take AATAGGGT: the “PBM E-score of 8-mer” value is -0.142 ± 0.03.

As for AGCCTCCC, the “PBM E-score of 8-mer” value was -0.147 ± 0.11.

Consider ATACACTA, for which the “PBM E-score of 8-mer” value is -0.106 ± 0.035.

For the sequence GAAGTCAA, the “PBM E-score of 8-mer” value was -0.141 ± 0.046.

As to AGCCTTTC, the “PBM E-score of 8-mer” value is -0.149 ± 0.048.

As for ATTCAACA, the “PBM E-score of 8-mer” value was -0.131 ± 0.039.

Take CCTTTAAC: the “PBM E-score of 8-mer” value is 0.141 ± 0.02.

Take AATCCTTA: the “PBM E-score of 8-mer” value was -0.108 ± 0.083.

On to ATTCGCGA, for which the “PBM E-score of 8-mer” value was determined as 0.392 ± 0.02.

For the sequence CCCCCCCG, the “PBM E-score of 8-mer” value is -0.164 ± 0.042.

In the case of AAAAGCCT, the “PBM E-score of 8-mer” value was -0.0255 ± 0.047.

For the sequence ATAGTCAT, the “PBM E-score of 8-mer” value was -0.0789 ± 0.01.

As to CACGCTCC, the “PBM E-score of 8-mer” value is 0.187 ± 0.011.

For CAGATATA, the “PBM E-score of 8-mer” value was -0.19 ± 0.057.

On to CGAATCCG, for which the “PBM E-score of 8-mer” value came out at 0.0539 ± 0.017.

Regarding AACAGTAC, the “PBM E-score of 8-mer” value worked out at 0.0287 ± 0.021.

In the case of CTTGAGGC, the “PBM E-score of 8-mer” value was -0.131 ± 0.038.

In the case of ATTGTACA, the “PBM E-score of 8-mer” value was -0.205 ± 0.086.

As for TTATGCAA, the “PBM E-score of 8-mer” value was -0.26 ± 0.022.

For the sequence AAGTACGC, the “PBM E-score of 8-mer” value was -0.0954 ± 0.029.

ACGCTGGC: the “PBM E-score of 8-mer” value was 0.042 ± 0.073.

For GTGACAGA, the “PBM E-score of 8-mer” value came to 0.283 ± 0.055.

Take ACTGAACG: the “PBM E-score of 8-mer” value is -0.268 ± 0.034.

In the case of CGCCGGCA, the “PBM E-score of 8-mer” value came to 0.169 ± 0.074.

Turning to CAAAGGCC, the “PBM E-score of 8-mer” value was -0.258 ± 0.044.

For ACGGGCCA, the “PBM E-score of 8-mer” value is -0.135 ± 0.046.

In the case of GACTGTGC, the “PBM E-score of 8-mer” value is -0.124 ± 0.033.

As to CCCCTGCG, the “PBM E-score of 8-mer” value was -0.107 ± 0.065.

With CCGACCCA, the “PBM E-score of 8-mer” value was -0.242 ± 0.0089.

On to GAAACGAC, for which the “PBM E-score of 8-mer” value stood at 0.116 ± 0.046.

For the sequence AAAAAAAC, the “PBM E-score of 8-mer” value was -0.0917 ± 0.073.

For ACCCCGTA, the “PBM E-score of 8-mer” value is -0.00587 ± 0.023.

As to CAAGGACG, the “PBM E-score of 8-mer” value is -0.152 ± 0.084.

For the sequence ACCTAACA, the “PBM E-score of 8-mer” value was 0.302 ± 0.039.

In the case of GCTGCACA, the “PBM E-score of 8-mer” value is 0.0656 ± 0.1.
